The supplement of paper PMC10441789
Some of the results follow. Antibody binding of pooled human sera (four to six donors per pool; dilution not stated) to peptides of the Trypanosoma cruzi antigen TSSA on microarrays. Quantile-normalised fluorescence in arbitrary units, mean of duplicate arrays; higher = more binding. No active / inactive call. The uninfected pools are read here as the healthy donors of the same country. The strongest signals lie near the top of the scale (about 60,000).

What was measured:
Test in all cases: antibody binding signal (normalised fluorescence) (arbitrary fluorescence units); higher = stronger serum antibody binding to peptide
[1] = test system: pooled sera of chronic Chagas disease patients, Argentina
Method: (§1)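 Microarray of 15-residue peptides over residues 30-55 of Trypanosoma cruzi TSSAII, each with 1 to 10 substitutions at naturally variable positions, probed with one serum pool per country.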

[2] = test system: pooled sera of chronic Chagas disease patients, Bolivia
Method: as §1

[3] = test system: pooled sera of chronic Chagas disease patients, Brazil
Method: as §1

[4] = test system: pooled sera of chronic Chagas disease patients, Colombia
Method: as §1

[5] = test system: pooled sera of chronic Chagas disease patients, Mexico
Method: as §1

[6] = test system: pooled sera of chronic Chagas disease patients, USA
Method: as §1

[7] = test system: pooled sera of uninfected people, Argentina
Method: as §1

[8] = test system: pooled sera of uninfected people, Bolivia
Method: as §1

[9] = test system: pooled sera of uninfected people, Brazil
Method: as §1

[10] = test system: pooled sera of uninfected people, Colombia
Method: as §1

[11] = test system: pooled sera of uninfected people, Mexico
Method: as §1

[12] = test system: pooled sera of uninfected people, USA
Method: as §1

| Sequence | antibody binding signal [1] | antibody binding signal [2] | antibody binding signal [3] | antibody binding signal [4] | antibody binding signal [5] | antibody binding signal [6] | antibody binding signal [7] | antibody binding signal [8] | antibody binding signal [9] | antibody binding signal [10] | antibody binding signal [11] | antibody binding signal [12] |
| --- | --- | --- | --- | --- | --- | --- | --- | --- | --- | --- | --- | --- |
| NKTAAGEAPSPPGAS | 372 | 1070 | 8140 | 359 | 357 | 5160 | 482 | 1020 | 531 | 667 | 194 | 1200 |
| SGKENKPATGETPSP | 35600 | 30800 | 35200 | 1300 | 1850 | 23100 | 7440 | 3940 | 269 | 327 | 1810 | 616 |
| ISTPPSGTDKKAAAG | 31800 | 13600 | 33700 | 7660 | 29200 | 4770 | 674 | 128 | 148 | 154 | 2070 | 272 |
| GKENKAATGEAPSPS | 28300 | 15800 | 33500 | 14700 | 10900 | 29000 | 444 | 184 | 125 | 187 | 128 | 170 |
| KENKTAAGEAPSQSG | 276 | 5030 | 7890 | 1260 | 233 | 6210 | 180 | 136 | 129 | 128 | 169 | 184 |
| PPSGKDKKTAAGETP | 823 | 620 | 715 | 1040 | 31700 | 1800 | 202 | 356 | 111 | 271 | 78.2 | 97.1 |
| TPPSGKEKKAAAGET | 6570 | 509 | 632 | 904 | 21700 | 1880 | 418 | 598 | 131 | 259 | 92.6 | 136 |
| GKEKKPATGGTPSQS | 3060 | 331 | 301 | 1600 | 1980 | 2050 | 173 | 130 | 265 | 108 | 137 | 253 |
| ENKTAAGGAPSPPGA | 190 | 2260 | 381 | 4730 | 600 | 959 | 261 | 190 | 543 | 168 | 272 | 206 |
| GTDKKAATGGAPSQP | 894 | 424 | 8030 | 2740 | 2560 | 911 | 367 | 416 | 131 | 560 | 215 | 138 |
| KDKKTATGGAPSPSG | 462 | 219 | 249 | 1200 | 262 | 476 | 206 | 79.7 | 95.2 | 81 | 84.7 | 124 |
| GTENKPAAGGTPSQP | 47600 | 2630 | 10400 | 1350 | 1460 | 1680 | 446 | 1970 | 1280 | 414 | 565 | 164 |
| PPSGTDKKAAAGGTP | 7080 | 1070 | 20300 | 9250 | 29400 | 2410 | 257 | 204 | 897 | 462 | 1270 | 248 |
| TDNKPATGETPSPSG | 36200 | 31100 | 35900 | 348 | 242 | 26500 | 103 | 474 | 322 | 161 | 1860 | 2460 |
| KEKKAAAGEAPSPSG | 130 | 182 | 320 | 158 | 133 | 7280 | 168 | 79.3 | 93.6 | 74.8 | 69.4 | 87.9 |
| PSGKDNKAAAGGTPS | 1740 | 416 | 2390 | 5100 | 4320 | 3240 | 219 | 230 | 245 | 126 | 81.6 | 84.3 |
| PSGTDNKAATGETPS | 11300 | 21200 | 43300 | 380 | 347 | 11400 | 153 | 556 | 1090 | 274 | 186 | 136 |
| TENKPATGGTPSQSG | 44700 | 1590 | 3340 | 326 | 1290 | 515 | 430 | 835 | 611 | 265 | 405 | 223 |
| TDNKPATGGTPSQSG | 786 | 542 | 3470 | 568 | 412 | 321 | 276 | 648 | 453 | 305 | 548 | 200 |
| TENKPAAGGAPSPSG | 44400 | 1130 | 4000 | 1450 | 787 | 748 | 255 | 423 | 309 | 214 | 198 | 261 |
| SGTEKKPATGETPSP | 34500 | 27600 | 27400 | 384 | 407 | 21700 | 171 | 660 | 605 | 194 | 1670 | 702 |
| STPPSGTDKKAATGG | 40700 | 14200 | 35800 | 12300 | 32400 | 8210 | 824 | 442 | 196 | 570 | 3070 | 371 |
| KENKPAAGGAPSPSG | 191 | 192 | 1600 | 738 | 370 | 558 | 225 | 143 | 141 | 115 | 101 | 204 |
